B1: LINE1-mini (parent)
chain: GGCAGAGCUCAACACAGCGUGGCAAAGUGGCUGUGGCUAGACUGCC

The source gives no read counts; variants with many changes may rest on few reads.

In this data set the parent is B1. Description: self-cleavage, relative activity (ratio to wild type); higher = more cleavage; in vitro, sequencing; the parent is a self-cleaving ribozyme.
Turning to G5C G21A A24U, the self-cleavage was 0.05.
Under G5U A12C G44A stands 0.01; under G5C G19U U20G G27C, 0.03.
Next, G5U G17U G36U: 0.05; G5U G19A U32G: 0.1; G5U C13U G19U: 0.04.
Next, G5C G21U A26U U38C: 0.02; G5U C10A C37A: 0.01; G5C G35U C42U: 0.1.
Regarding G5C C15A A16G C42A, the self-cleavage came out at 0.01.
Under G5U G21A C31A stands 0.18; under G5U A12U U28A, 0.01; under G5U A6C C13U C23A A25G A26U, 0.
Next, G5C C23U A24U G29C A41C: 0.06; G5C C13A G21C A24G G29U: 0.01; G5C U20G G36A: 0.03.
As to G5U G27A G29C U38A, the self-cleavage amounted to 0.01.
Turning to G5C C15U C18G G33C G44C, the self-cleavage turned out to be 0.06.
Regarding G5U C23U A41U, the self-cleavage came to 0.08.
As for G5C U28C U32G, the self-cleavage is 0.02.
On to G5U G29A G30A C31A, for which the self-cleavage amounted to 0.06.
Under G5C G7A A16C G36U G40U U43C stands 0.01.
Next, G5U A11G G19C G29A: 0.02.
Next, G5C C23A G40C: 0.04; G5U C18A G22C: 0.03.
As for G5U C8G G30U G35C, the self-cleavage was 0.02.
Next, G5U G40C C46A: 0.01; G5U C45G C46A: 0.52; G5U U9A C18A A41C C42A: 0.16.
With G5C G35C C46U, the self-cleavage amounted to 0.05.
Under G5U C13U G22U stands 0.21; under G5U C8G A11C, 0.
As for G5C C18A U43A, the self-cleavage was 0.02.
For G5C G7A C18A G19U G30C C37U, the self-cleavage was determined as 0.06.
Take G5U A24C G29U G33U: the self-cleavage stood at 0.
Under G5U A25G C46U stands 0.
Next, G5U G33A G44C C46A: 0.05; G5U G7A U34A: 0; G5U C15A A16U G19C G21C C23U A24C C37U: 0.03.
Next, G5C U9C G35U: 0.03.
With G5C U32A C46A, the self-cleavage was determined as 0.04.
Next, G5C G19A G21U C23G: 0.02; G5U A6U C13A: 0.14; G5U U9A C15U A16G C23U G33U: 0.19.
Under G5C U28C U38C C45A stands 0.02.
Consider G5U G17A G19U G40U, for which the self-cleavage was found to be 0.
G5U C23A G30A G44C: the self-cleavage is 0.02.
Next, G5U G30A C45G: 0.08.
Next, G5U A16G G22C U28A G29U: 0; G5U C18G G29C A39C: 0.07; G5U C13G G30U U32G: 0.06.
In the case of G5U C8G C18A G36A, the self-cleavage was found to be 0.07.
Under G5U U9A G21U A39C stands 0.14; under G5U C18G U34C, 0.03; under G5U C13A A14U, 0.05.
On to G5U G35A A39U, for which the self-cleavage came to 0.1.
Under G5U C8A A11U stands 0.03.
Turning to G5U C42A G44U C46G, the self-cleavage is 0.
For the variant G5U G17A G21U, the self-cleavage was determined as 0.19.
As for G5U C15A G19U G27C, the self-cleavage was found to be 0.07.
For the variant G5U A11U G21A, the self-cleavage was 0.04.
Consider G5U C10A U38A, for which the self-cleavage came to 0.12.
Under G5U G36U C46U stands 0.02; under G5U G36U C46A, 0.07.
Take G5U C18U G21A U43C: the self-cleavage was 0.04.
As to G5U G19A A39C, the self-cleavage came out at 0.03.
As to G5U G21U G22U, the self-cleavage was determined as 0.11.
On to G5U G21U G22C, for which the self-cleavage came out at 0.38.
Under G5U G7C G29A G30U stands 0.2.
On to G5U C13A G40U C42G, for which the self-cleavage was 0.12.
Regarding G5U G33A C37A A41U, the self-cleavage came out at 0.09.
As for G5U C8U U9G, the self-cleavage came out at 0.21.
In the case of G5C C18A A26G G27C, the self-cleavage turned out to be 0.01.
Under G5C C13A G21A C45A stands 0.02; under G5C G27C G35C, 0.07; under G5C C13U G36C C37U, 0.05.
Regarding G5C C23A C42U, the self-cleavage amounted to 0.05.
Under G5U C8U G22U G36U stands 0.54; under G5C C18U C46A, 0.04; under G5C G17A G29U C42U, 0.15.
Turning to G5C C13A G17C G19U C31U G36C A39C, the self-cleavage came out at 0.03.
Under G5U A11U C13U C18G G30U G36U stands 0.02; under G5U G7A C8G G29A, 0.19.
With G5U A11C A16C G27C U43C, the self-cleavage came out at 0.03.
Under G5U G17U U28A G29C stands 0.02; under G5U A14U U32G C45G, 0.09.
Turning to G5U C13G G17A U28A U34G G36A A39C, the self-cleavage amounted to 0.01.
Next, G5U C15G C18G C42U: 0.01; G5C U9A G21A U28A U34C: 0.42.
Next, G5U G29A G30U U34C C37U: 0.04.
For G5U C8U C15A G33U C46U, the self-cleavage came out at 0.42.
Under G5U A14U G33A stands 0.29; under G5C U28G G30A U32G, 0.07.
Regarding G5U A12G G29U, the self-cleavage is 0.02.
In the case of G5U A14G G22A A25U U32C A39U, the self-cleavage was 0.02.
G5U A6G U32G C37U: the self-cleavage came to 0.05.
Next, G5U C23A C37A G40A: 0.01.
Under G5U C23U G27U A39G stands 0.
Consider G5C G22C A24G G29U, for which the self-cleavage was found to be 0.04.
Turning to G5U A24U G33C, the self-cleavage came to 0.01.
Next, G5U C13U A14G G40A: 0.04; G5C G40A C46U: 0.18.
Next, G5C G30U C31U: 0.01; G5U G30A G36A: 0.32.
For G5C G7U C10A U28C U32G, the self-cleavage was 0.02.
As to G5U G27U G29A U43G, the self-cleavage turned out to be 0.
As for G5U G27A A41C C42A, the self-cleavage turned out to be 0.
Turning to G5U C15U U28A G29U G40U, the self-cleavage amounted to 0.03.
Under G5C G17A U32G G36U A41G stands 0.01.
Next, G5C G19A C42G: 0.98.
For the variant G5U G27U G44U, the self-cleavage stood at 0.06.
Under G5C C13U G40U stands 0.04.
Consider G5U G29U A41G, for which the self-cleavage was determined as 0.07.
Next, G5C U9C A11G: 0.01.
Consider G5C G27U G30U G36U, for which the self-cleavage stood at 0.01.
Consider G5U C8U C31G U32A, for which the self-cleavage is 0.06.
In the case of G5C G7A C18G, the self-cleavage came out at 0.13.
Consider G5U A24G C46A, for which the self-cleavage was 0.
Next, G5U G7U C10G U38A G44C C45A: 0; G5C G7A C10U A14G A24C A25G G30C U38G: 0.07; G5U C8A U9C A16C G19U G35C G36C U38A C42A: 0.02.
Regarding G5U A14U C18U G22C C46A, the self-cleavage is 0.05.
Next, G5C U20C G21U C23U: 0.02; G5U A12U U34A C37G: 0.03.
Consider G5U G30C C42U, for which the self-cleavage is 0.02.
On to G5U A16U G30C, for which the self-cleavage was 0.01.
Turning to G5U C10U U43C, the self-cleavage was determined as 0.19.
Under G5C G19A G40U C42G stands 0.22; under G5C C10U G27A C42G U43C, 0; under G5U C8U C31A, 0.11.
Consider G5U C23A G33A, for which the self-cleavage worked out at 0.04.
Under G5C G19C G35U stands 0.02; under G5U G17A G30A, 0.04.
As for G5U C18G A24U C46U, the self-cleavage is 0.04.
Under G5U C8G A12G stands 0.02.
With G5U G35U U43A, the self-cleavage turned out to be 0.01.
In the case of G5U C10U A26G G29U G35U, the self-cleavage was determined as 0.04.
Next, G5U C13A G29U U38A: 0.1; G5C G17C U43C: 0.03.
Under G5C C13A G29U stands 0.15.
On to G5C U34A C42G, for which the self-cleavage is 0.06.
For G5C C13G C42G, the self-cleavage amounted to 0.11.
Next, G5U G27C U34A G44A: 0.06; G5C G21U G33U: 0.02; G5C G19A C23A U38A U43A: 0.01.
As for G5U C10A A11C U38A, the self-cleavage came out at 0.03.
Next, G5U A11G G27A: 0; G5U G19C U20A A39C: 0.02.
Under G5U A14G C15G G22A stands 0.04.
Under G5C G7A C8G stands 0.05; under G5U C18U G22U G35A G44C, 0.01.
As for G5U A12G G35U, the self-cleavage is 0.03.
Next, G5U A16C G22A G27A: 0.04; G5U G36C A39U: 0.05.
G5U A12C U32C: the self-cleavage was 0.
Regarding G5C U9G C10A, the self-cleavage amounted to 0.01.
Next, G5C G21A G27U G33C U38C: 0.01; G5U A6G C18U G33U: 0.
Regarding G5C G17A G21A G35A, the self-cleavage came out at 0.02.
Regarding G5C C15G G17U G29U G30C A39U, the self-cleavage came to 0.02.
Regarding G5U C10U A14U, the self-cleavage worked out at 0.03.
Under G5U A16U U28A C42U stands 0.04.
Next, G5C G22A G29U C45A: 0.04.
With G5U G7C C13U C15U A25G U28A, the self-cleavage turned out to be 0.1.
Under G5U G19A G21U C23G A39G stands 0.07.
Next, G5U C10U A11G G44A: 0.01; G5C G7A G17A C23A A39G: 0.05.

The values above are taken from the RNAGym collection of RNA variant scans (doi:10.7554/elife.90254).
